Measured values: publication PMC4336329 (PLoS ONE, 2015)
Among all 310,000 compounds or so, about 2,200 (0.71%) showed an effect of 50% or more. The effect is printed as a negative number. Some of the results follow.

The compounds below were run against human ether-à-go-go-related gene (hERG) potassium channel (human, UniProt Q12809) (assay: primary screen, population patch clamp on CHO cells stably expressing hERG).
Sequence of human ether-à-go-go-related gene (hERG) potassium channel (Q12809 whole entry, looked up): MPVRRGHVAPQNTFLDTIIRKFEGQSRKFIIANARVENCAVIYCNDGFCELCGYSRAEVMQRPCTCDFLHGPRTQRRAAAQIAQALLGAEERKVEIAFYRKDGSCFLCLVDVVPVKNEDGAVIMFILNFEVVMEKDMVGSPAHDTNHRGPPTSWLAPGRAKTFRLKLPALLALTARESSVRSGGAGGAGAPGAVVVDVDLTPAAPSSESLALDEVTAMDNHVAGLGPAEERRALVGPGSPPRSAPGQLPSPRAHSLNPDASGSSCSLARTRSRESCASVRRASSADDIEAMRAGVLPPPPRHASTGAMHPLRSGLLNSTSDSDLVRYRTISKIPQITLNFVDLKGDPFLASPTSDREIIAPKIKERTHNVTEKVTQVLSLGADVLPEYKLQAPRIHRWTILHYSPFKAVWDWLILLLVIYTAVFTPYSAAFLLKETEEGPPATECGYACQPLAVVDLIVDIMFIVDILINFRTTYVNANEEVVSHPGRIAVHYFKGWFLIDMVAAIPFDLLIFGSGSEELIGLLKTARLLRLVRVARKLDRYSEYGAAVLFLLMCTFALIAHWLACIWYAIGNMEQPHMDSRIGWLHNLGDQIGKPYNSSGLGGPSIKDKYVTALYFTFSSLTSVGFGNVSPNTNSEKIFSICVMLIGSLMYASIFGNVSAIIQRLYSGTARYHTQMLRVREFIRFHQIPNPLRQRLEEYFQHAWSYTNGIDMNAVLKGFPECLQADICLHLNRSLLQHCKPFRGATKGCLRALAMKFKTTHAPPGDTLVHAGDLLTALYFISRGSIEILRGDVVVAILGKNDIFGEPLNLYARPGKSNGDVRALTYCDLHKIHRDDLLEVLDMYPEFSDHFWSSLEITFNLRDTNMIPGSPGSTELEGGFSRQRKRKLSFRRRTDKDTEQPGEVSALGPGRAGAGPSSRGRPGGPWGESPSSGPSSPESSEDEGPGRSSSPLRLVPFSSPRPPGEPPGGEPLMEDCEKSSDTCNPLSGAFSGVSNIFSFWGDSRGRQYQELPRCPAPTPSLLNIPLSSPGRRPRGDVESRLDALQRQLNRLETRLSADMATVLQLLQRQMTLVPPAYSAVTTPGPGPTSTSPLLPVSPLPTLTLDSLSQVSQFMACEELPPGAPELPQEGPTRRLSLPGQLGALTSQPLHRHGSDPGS

Structure (SMILES) | hERG current change (%, negative = inhibition) at 1uM [%]
Cc1cccc(N/C(N)=N/c2nc(C)c(Cc3ccccc3)c(=O)[nH]2)c1 | 25.4
Cc1[nH]n(-c2ncc(-c3ccccc3)s2)c(=O)c1C(c1ccc(Br)cc1)C(C#N)C#N (stereo not shown) | 4.29
COc1ccc(OC)c(NC(=O)CCc2c[nH]c3ccccc23)c1 | 6.63
Cc1cc(C)n(CC(=O)c2ccc(Br)cc2)c(=O)c1C#N | -2.8
NC(=O)c1ccccc1N/C=C/C(=O)c1cccs1 | 5.49
COc1cc(C)c(CN2CCN(c3ncccn3)CC2)cc1C | 6.18
CCOc1cc(C2C(C#N)=C(N)Oc3c2c(=O)oc2ccccc32)ccc1OC(=O)c1cccs1 (stereo not shown) | 3
Fc1ccc(NC(=S)N2CCN(c3ncccn3)CC2)cc1 | 16.8
COc1cc(F)ccc1S(=O)(=O)n1c(C)nc2ccccc21 | 4.81
CC1(c2ccccc2)NC(=O)N(CC(=O)Nc2cccc(/C=C/c3ccccn3)c2)C1=O (stereo not shown) | 12
CCCCCCCCOC(=O)C1=C(C)Nc2nnnn2C1c1cccs1 (stereo not shown) | -1.64
CCCc1cc(-c2nc(N)ncc2-c2ccc3c(c2)OCCCO3)c(O)cc1OC | -1.77
Cc1ccc(NC(=O)COC(=O)COc2cccc3c2OC(C)(C)C3)c(C)c1 | 10.5
C1CCCCCC(NCCN2CCNCC2)CCCCC1 | 9.34
COc1ccc(NC(=O)C2CCCO2)cc1Cl (stereo not shown) | 0.7
COc1ccc(OC)c(Nc2nc3ccc(C)cc3n3cnnc23)c1 | 1.7
Cn1nc(-c2ccc(N3CCOCC3)c(NS(=O)(=O)c3ccc(Cl)cc3)c2)c2ccccc2c1=O | 15.2
COc1cc(/C=C2/C(=N)N3N=C(C(C)C)SC3=NC2=O)ccc1OS(=O)(=O)c1ccccc1 | 13.5
COC(=O)Nc1nnc(COc2ccccc2)s1 | 11.3
CCOC(=O)N/N=C(/c1ccccc1)C1CCCCC1 | 15.5
O=C(Nc1ccccc1F)c1ccc(CNS(=O)(=O)c2cccc(C(F)(F)F)c2)cc1 | 2.38
C/C(=N\OCc1cccc(C(=O)O)c1)c1ccc(Cl)cc1 | 7.01
CCOc1ccc(-c2nc(N)ncc2-c2ccc(OC)cc2)c(O)c1 | 5.69

Structure (SMILES) | hERG current change (%, negative = inhibition) at 1uM [%]
CCOC(=O)C1(Cc2ccc(OC)cc2)CCN(C(=O)c2cc(C)on2)CC1 | 4.83
CC(=O)Nc1sc2c(c1C#N)CCCC2 | 11.9
CS(=O)(=O)N1CCC(Oc2ccccc2C(=O)N2CCNC(=O)C2)CC1 | 6.37
O=C(CN1CCN(c2ncccn2)CC1)N1CCCC1.O=C(O)C(=O)O | 6.88
Cc1ccc(CNc2nc(-c3cccnc3)nc3ccccc23)cc1 | 11.3
O=C(CCNS(=O)(=O)c1ccc(Br)cc1)NCC1CCCO1 (stereo not shown) | 13.9
Cc1cc2nc3c(=O)n(CCc4ccccc4)c(=O)[nH]c3nc2cc1N | 4.29
O=c1cc(-c2ccccc2Cl)oc2cc(O)cc(O)c12 | 15.1
Cc1cc(C(=O)OC(C)C(=O)N2CCc3ccccc32)ccc1[N+](=O)[O-] (stereo not shown) | -7.26
CCOc1ccc(C(=O)NC(=S)Nc2cc(C)ccn2)cc1[N+](=O)[O-] | 14
Cc1nc(NC(=O)C2CC2)sc1C(=O)N1CCCCC1 | 4.1
CCc1ccc(N(CC(=O)NC2CCCC2)S(=O)(=O)c2c(C)noc2C)cc1 | 0.971
O=C(c1cc2c(=O)n3ccccc3nc2s1)N1CCc2ccccc2C1 | 7.55
O=C(OC1CCCCC1=O)c1cccc(S(=O)(=O)N2CCOCC2)c1 (stereo not shown) | 10.4
COc1cccc(-n2c(=S)[nH]c3ccccc3c2=O)c1 | 13.6
c1cncc(-c2noc(-c3ccco3)n2)c1 | 7.71
O=C(O)c1cc(-c2ccccc2Cl)n[nH]1 | 3.35
CN(O)/C=N/C(=S)Nc1ccc(Cl)cc1Cl | 15
O=C(Cc1cccc2ccccc12)N/N=C/C=C/c1cccc([N+](=O)[O-])c1 | 6.42
CCCCCNC(=O)Cc1ccc(S(=O)(=O)N2CCOCC2)s1 | 13
COC(=O)CC1C(=O)NCCN1C(=S)NC(=O)CCc1ccccc1 (stereo not shown) | 10.7
CC(=O)c1cc(-c2ccccc2)n(CC(=O)NC(C)(C)C)c1C | 9.66
Cn1nc(C(=O)Nc2nnc(C3CC3)s2)c2ccccc2c1=O | 17.9

Structure (SMILES) | hERG current change (%, negative = inhibition) at 1uM [%]
CCN1C(=O)c2cccc3c(Cl)ccc1c23 | 2.91
Cc1cc(Nc2ccc(N3CCC(C)CC3)cc2)n2ncnc2n1 | 4.95
Cc1csc(NC(=O)CNS(=O)(=O)c2cccs2)n1 | 18.6
COC(=O)C1=C(C)N(CCCC(=O)O)C(=O)NC1c1ccc(OC)cc1 (stereo not shown) | 10.9
CCOCCCn1c(=S)[nH]c2ncccc2c1=O | 14.7
CCOC(=O)c1c(-c2ccccc2)oc2ccc(O)c(CN3CCN(C)CC3)c12 | -3.04
C=CCN(CC=C)C(=S)NCCc1ccc(OC)c(OC)c1 | 6.97
CCCN1Cc2cccc(C(=O)NCc3cccs3)c2C1=O | 1.02
O=Cc1ccc(O)c(O)c1 | 12.5
COc1ccc(/C=C/C(=O)Nc2ccccc2C(F)(F)F)cc1 | 8.11
Cc1cccc(C)c1OC(=O)CSc1nnc(-c2ccccc2O)o1 | -3.71
O=C(NC(CO)Cc1ccccc1)c1ccccc1 (stereo not shown) | 7.1
CCCCCN(C(=O)CCC(=O)OCC(=O)N(C)c1ccccc1)c1c(N)n(CCCC)c(=O)[nH]c1=O | 6.11
O=C1CCCCN1CCC(=O)N1CCCC(Nc2ccc(F)c(F)c2)C1 (stereo not shown) | 5.61
Cc1ncc(CN2CCC(n3nccc3NC(=O)c3ccccc3)CC2)s1 | 5.73
O=C(CCCn1c(=O)c2ccccc2n(Cc2ccccc2)c1=O)NCc1ccco1 | 4.34
Cc1cc(=O)oc(C)c1C(=O)OCC(=O)c1ccc(Cl)cc1 | -3.08
CCOc1cc2c(C)cc(=O)oc2cc1Cl | 5.82
COc1ccc([N+](=O)[O-])cc1-c1nc2ccccc2nc1-c1ccccc1 | 13.4
CCOC(=O)CNC(=O)CSc1nc2sc(C)c(C)c2c(=O)n1C | 11.6
COc1ccccc1OC(C)C(=O)Nc1ccc(S(=O)(=O)Nc2nccs2)cc1 (stereo not shown) | -2.33
O=C(CN1CCCC1)Nc1ccc(-c2nc3cc(NC(=O)CN4CCCC4)ccc3o2)cc1 | 9.49
CC1=C(C(=O)Nc2cccc(C(=O)NC(C)C)c2)SCCO1 | 17.8

Structure (SMILES) | hERG current change (%, negative = inhibition) at 1uM [%]
COC(=O)c1cc2ccsc2n1CC(=O)N(C)c1ccccc1 | 10.1
Cc1ccc(NC(=O)CCC(=O)OCCCC(F)(F)C(F)(F)F)cc1 | -2.68
O=C(Cc1cccc2ccccc12)NN1C(=O)C2C(C1=O)C1C=CC2C12CC2 (stereo not shown) | 7.67
Cc1cc(C(=O)N/N=C/c2ccc(O)c([N+](=O)[O-])c2)n[nH]1 | 2.81
O=C(CCNC(=O)Cn1ccc2ccccc2c1=O)NCc1ccc(F)cc1Cl | 8.73
CCn1c(SCC(=O)Nc2ncc(C(F)(F)F)cc2Cl)nnc1-c1cccc(C)c1 | -6.42
COc1ccc(OCc2cccc(C(=O)O)c2)cc1 | 13.7
Cc1ccc(CN(CC(=O)N/N=C/c2ccccc2[N+](=O)[O-])S(=O)(=O)c2ccc(C)cc2)cc1 | 1.49
COc1ccc(/C=N/OCC(=O)Nc2ccc3c(c2)OCO3)c(OC)c1 | 8.67
COc1cccc(CNc2ccc3c(c2)nc(C)n3C)c1OC | 10.1
O=C(NCCn1cccn1)C1CCC(=O)N(CC2CCCCC2)C1 (stereo not shown) | 4.12
CCc1ccc2c(CN3CCc4cc(OC)c(OC)cc4C3)cc(=O)oc2c1 | -12.7
COc1ccc(/C=C2\C(=N)N3N=C(CC(=O)N4CCOCC4)SC3=NC2=O)cc1 | 11.4
O=C(OCC(=O)C12CC3CC(CC(C3)C1)C2)c1cccnc1 | 10.3
CC(C)CN(C(=O)C1CC1)c1c(N)n(Cc2ccccc2)c(=O)[nH]c1=O | 23
O=C(c1ccc(OC2CCN(CCc3ccccc3)CC2)cc1)N1CCCC(CO)C1 (stereo not shown) | -1.57
O=C(O)Cc1csc(Nc2cccc(Cl)c2)n1 | 5.87
COc1ccccc1NC(=O)c1cc2ccccc2o1 | 23.1
Cc1ccc(C(C)C)c(OCC(=O)NNC(=O)CC2OC(=O)c3ccccc32)c1 (stereo not shown) | -5.53
COc1ccc2nc(SCC(=O)Nc3cc(C)on3)[nH]c2c1 | 0.913
O=C(CCN1CCN(c2ccccn2)CC1)Nc1ccc(F)cc1 | -9.5
O=C(NCC1OCCCN1S(=O)(=O)c1cc(F)ccc1F)C(=O)NC1CCCCC1 (stereo not shown) | 6.9
